Laboratory results: PubChem BioAssay AID1963576 (National Center for Advancing Translational Sciences (NCATS), 2024)
The campaign covered roughly 46,000 compounds. About 60 (0.1%) were called active. Inconclusive results (about 3%) are left out. The call rests on the fitted dose curve; in most records, active means well fitted inhibition curve with a large enough effect; inconclusive means small, poorly fitted or top-dose-only effect; inactive means no such curve, though single readings can be large or run the other way. This is one part of the list.

Test: Primary qHTS assay for Inhibitors of ovarian cancer metastasis using an organotypic tumor microenvironment (TME) model. Further: nearly all actives have a fitted effect of over 65% in size.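 On activity change, negative = inhibition: plate controls were DMSO wells for no effect and tomatine positive control wells for full effect.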
Details: SKOV3ip1-GFP adhesion/invasion on 3D omental model, fluorescence; series mostly up to 45.8 µM; activity change, negative = inhibition: at the top concentration
How it was run: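 Adhesion/invasion was scored as fixed GFP-labeled SKOV3ip1 cell counts (488/509 nm), normalized to DMSO and tomatine controls. Cancer cells in serum-free medium, with four compound doses (0.36-46 umol/L), sat 2 hr at RT then 16 hr at 37 C on a 48 hr fibroblast/mesothelial/ECM culture.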

Activity change, negative = inhibition, inactive:
Cc1ccc(C(=O)NC2=NC(c3ccc(C)cc3)CC(=O)N2)cc1 (configuration not stated) -8.07%, CCc1ccc(NC(=O)CC2C(=O)N(c3cccc(OC)c3)C(=O)N2C2CCCC2)cc1 (configuration not stated) 9.15%, Cc1cc(C)cc(NC(=O)c2cc(CN3CCCC3)on2)c1 5.15%, CCOCCCNC(=O)C1CCN(C(=O)c2cc3sccc3n2C)CC1 -0.887%, COc1ccc(CCNC(=O)CCCn2c(=O)c3cccn3c3ccccc32)cc1OC -0.904%, Cc1cc2c(cc1NC(=O)c1ccccc1C)n(C)c(=O)c(=O)n2C 10.7%, CCC(Cc1ccccc1)NC(=O)CN1C(=O)COc2ccc(S(=O)(=O)N3CCCCCC3)cc21 (configuration not stated) 8%, COc1ccccc1N1CCN(C(=O)C2CCN(S(=O)(=O)Cc3ccccc3)CC2)CC1 6.98%, CC(C)CCN(Cc1ccco1)C(=O)c1cc2c(s1)-c1ccccc1OC2 1.02%, CCc1ccc2oc(C(=O)Nc3cccc(Cl)c3C)cc(=O)c2c1 2.25%, COCc1nn2cc(-c3ccc(C)cc3)nc2s1 6.56%, Cc1ccc(C(=O)Nc2cc(-c3nc4ncccc4o3)ccc2C)c(C)c1 -4.31%, Cc1cccc(N2CCN(C(=O)Cc3c(C(=O)O)c(C)cn3C)CC2)c1C 0.163%, Cc1ccc(C(=O)c2c(N)c(-c3nc(-c4ccc5c(c4)OCO5)cs3)c3ccccn23)cc1C 2.39%, COC(=O)c1ccc(Cn2cnc3nc4c(cc3c2=O)CCCC4)cc1 -5.26%, CCOc1ccccc1NC(=O)Cn1ncc2c(=O)oc3ccc(C)cc3c21 2.41%, Cc1ccc(C(=O)N2CCc3cc(CNS(=O)(=O)c4cccs4)ccc32)cc1 -9.52%, O=C(Nc1nc2c(s1)CCCCCC2)Nc1ccc(F)cc1F 1.2%, CCOc1ccccc1C(=O)NC1(C(F)(F)F)NC(=O)N(CCc2ccc(OC)c(OC)c2)C1=O (configuration not stated) 0.146%, Cc1nc2ccn(Cc3ccccc3)c(=O)c2cc1C(=O)N1CCN(c2ccccc2F)CC1 56.6%, Cc1cccc(C2C=C(c3ccc(C)c(C)c3)Nc3nnnn32)c1 (configuration not stated) -4.97%, O=C(CSCc1cnn(-c2ccccc2)c1-n1cccc1)NCc1ccc(Cl)cc1 -5.95%, CCCOc1ccc(NC(=O)CC2C(=O)N(c3cccc(OC)c3)C(=O)N2Cc2cccs2)cc1 (configuration not stated) 12.1%, COc1ccccc1N1CCN(C(=O)c2cn(CC(C)C)c(=O)c3c2c2ccccc2n3C)CC1 -8.52%, O=C(Nc1nnc(S(=O)(=O)N2CCCc3ccccc32)s1)c1ccccc1Cl 3.73%, CCCOc1ccc(CN(C(=O)Cc2coc3ccc(CC)cc23)C2CCS(=O)(=O)C2)cc1 (configuration not stated) -14.5%, COc1ccc(NC(=O)c2c(NCc3sccc3C)sc3c2CCCC3)c(OC)c1 -6.94%, Cc1cn(C)c(CC(=O)N2CCN(c3cccc(Cl)c3)CC2)c1C(=O)O 2.74%, Cc1ccc(NC(=O)CN2CCN(S(=O)(=O)c3ccc(C(C)C)cc3)CC2)cc1F 8.52%, O=c1c2ccccc2n(Cc2ccccc2Cl)c(=O)n1CCc1ccccc1 -4.95%, CCOC(=O)c1ccc(Nc2nc3ccc(C(=O)c4ccccc4)cc3n3c(C)nnc23)cc1 -5.05%, Cc1cccc(NC(=O)c2ccc3nc(C(C)C)oc3c2)c1C -17%, Cc1ccc(-n2cc(C(=O)Oc3cccc(C)c3)c3ccccc3c2=O)cc1 4.52%, CCOc1ccc(NC(=O)C(=O)c2cc(C)n(-c3cc(C)cc(C)c3)c2C)cc1 -0.434%, Cc1ccc(NC(=O)C2CCCN(S(=O)(=O)c3ccc4c(c3)oc(=O)n4C)C2)cc1Cl (configuration not stated) -14.2%, COc1ccc(-c2cc(C(=O)NCCc3ccccc3)c3c(-c4ccccc4)[nH]nc3n2)cc1OC -17.6%, CCCOc1ccc(C(=O)OCCN(CC)CC)cc1N 9.42%, COc1ccc(CCNC(=O)c2ccc3c(c2)CCN3S(=O)(=O)c2ccc(C)cc2)cc1 -0.0706%, COc1cc(Cl)c(NC(=O)CCS(=O)(=O)c2ccc3c(c2)NC(=O)CO3)c(OC)c1 -0.471%, COc1ccccc1CCNC(=O)C(=O)NCC(c1cccs1)S(=O)(=O)c1cccs1 (configuration not stated) -2.19%, CCOc1ccc(S(=O)(=O)Nc2cccc(-c3ccc(OCC)nn3)c2)cc1 6.9%, O=C(Nc1ccc(S(=O)(=O)N2CCCCC2c2cccnc2)cc1)c1ccc(Br)cc1 (configuration not stated) -24.5%, Cc1cc(C)c2oc(C(=O)Nc3ccc(S(=O)(=O)N4CCCCCC4)cc3)cc(=O)c2c1 0.561%, Cc1cccc(NC(=O)c2c(C)cc(C)nc2SCC(=O)c2ccccc2)c1 0.788%, COc1ccc(S(=O)(=O)c2cn(C)c3ccc(C)cc3c2=O)cc1 4.6%, O=C(Nc1ccc(F)cc1C(F)(F)F)C1CCN(c2ncccn2)CC1 32%, CCC(C)NC(=O)CSc1nc2n[nH]c(C)c2c(=N)n1-c1cc(Cl)ccc1C (configuration not stated) -3.41%, CC(C)c1ccc(NC(=O)c2ccc(F)c(S(=O)(=O)N3CCc4ccccc43)c2)cc1 -5.82%, COc1ccccc1NC(=O)c1sc2nc(C)c(C(=O)Nc3ccc(C)cc3C)c(-c3ccco3)c2c1N -26.8%, CCC1=Nc2cc(C(=O)NC3CCC(C)CC3)ccc2Sc2ccc(C)cc21 (configuration not stated) 2.56%, CCOc1ccc(OCC)c(Nc2ccc3cc(S(=O)(=O)N4CCCC4)ccc3n2)c1 0.323%, CSc1cccc(NC(=O)c2cccc(N3CCCS3(=O)=O)c2)c1 17.6%, Cc1ccc(NC(=O)c2ccc3[nH]c(C)cc(=O)c3c2)cc1 17.7%, COc1ccc(NC(=O)CSc2ccc3nc(-c4ccccc4)cn3n2)c(OC)c1 -20.4%, Cc1ccccc1NC(=O)CSc1nc2ccc(NC(=O)c3cccs3)cc2s1 -6.8%, COc1ccccc1CNC(=O)c1cc2sccc2n1Cc1ccc(Cl)cc1 -0.615%, CCOc1ccc(/C=C/C(=O)Nc2sc3c(c2C(=O)OC)C(C(=O)OC)CC3)cc1 (configuration not stated) 2.73%, Cc1nc(-c2ccc(S(=O)(=O)Nc3ccc(C#N)cc3)cc2)co1 -5.97%, COC(=O)c1ccc(NC(=O)CSc2nc(C)cc(C)c2C(=O)Nc2ccccc2)cc1 2.11%, CCOc1cc2c(c(F)c1OCC)C(=N)N(CC(=O)c1cc(N3CCOCC3)c(OC)c(C(C)(C)C)c1)C2 -27.2%, CCCNS(=O)(=O)c1ccc2nc(NC(=O)c3ccc(F)cc3)sc2c1 21.8%, Cc1ccc2nc(N3CCN(c4ccccc4)CC3)c3nnnn3c2c1 0.154%, CCc1cccc(-n2c(=O)c3cccnc3n2CC(=O)NCc2ccccc2)c1 -5.15%, CCn1nnc2cc(C(=O)Nc3ccc(Cl)cc3C)ccc21 -5.32%, O=C(NCCC1=CCCCC1)c1ccc2c(c1)N(Cc1ccccc1F)C(=O)c1ccccc1S2=O (configuration not stated) -8.48%, COc1ccc(N2CCN(C(=O)c3cccc(-n4c(C)nc5cccnc54)c3)CC2)cc1 -5.75%, COc1cc2cc(CNc3ccccc3)c(=O)n(CC(=O)Nc3ccccc3)c2cc1OC -1.35%

outcome, inactive:
Cc1ccc2c(c1)-c1ncc(C(=O)c3ccccc3O)cc1CO2, Cc1cc(C)cc(NC(=O)CSc2nc(-c3ccccc3)c3cc(F)ccc3n2)c1, CCCCCOC(=O)CSc1ncnc2sc3c(c12)CCC(C)C3 (configuration not stated), CC(=O)c1ccc(NC(=O)c2cc3sccc3n2Cc2ccc(F)cc2)cc1, O=C(COc1ccccc1)OCc1cc(=O)n2nc(C3CC3)sc2n1, COc1cc(-c2nnc(SCCOc3ccc(Cl)cc3)o2)cc(OC)c1OC, CCc1ccc(CNC(=O)CCCN2C(=O)CCn3nc(-c4cccn4C)cc32)cc1, COc1ccc(NC(=O)CCCN2C(=O)C(c3ccccc3)Oc3cccnc32)c(OC)c1 (configuration not stated), CC(=O)N1CCc2c(sc3c2c(=O)n(Cc2ccccc2)c(=O)n3Cc2ccc(C)cc2)C1, CCOC(=O)c1c(C)oc2ncnc(Nc3ccc(OC)cc3OC)c12, COc1ccccc1NC(=O)CSC1=Nc2ccccc2C2=NC(CCC(=O)NCCc3ccccc3)C(=O)N12 (configuration not stated), CCOc1ccccc1CNC(=O)C1CCN(S(=O)(=O)c2ccc3[nH]c(=O)ccc3c2)CC1, COc1ccc(-c2noc(CSc3nnc(C)n3-c3ccc(C)cc3)n2)cc1OC, CN1C(=O)Cc2cc(S(=O)(=O)NCCc3ccc(Cl)cc3)ccc21, COc1ccc(N2CCN(C(c3ccccc3)c3sc4nc(-c5ccco5)nn4c3O)CC2)cc1 (configuration not stated), CCCn1c(=O)sc2cc(NC(=O)c3ccc(OC)c(Br)c3)ccc21, CC(C)CC(NS(=O)(=O)c1ccc2c(c1)oc(=O)n2C)C(=O)NCc1ccccc1Cl (configuration not stated), CCc1nn2c(=O)cc(COC(=O)CNC(=O)COc3ccc(C)cc3)nc2s1, Cc1ccc(-n2nc(CO)c(C(=O)NC(C)CCCc3ccccc3)n2)cc1 (configuration not stated), COc1ccc(Nc2nc(N)nc(N)c2S(=O)(=O)c2ccccc2)cc1, CCCN(CCC)C(=O)Cn1c(=O)n(-c2ccc(CC)cc2)c(=O)c2ccc(C(=O)NCCc3ccccc3)cc21, COc1cccc(NC(=O)CSC2=Nc3ccccc3C3=NC(CCC(=O)NCCc4ccccc4)C(=O)N23)c1 (configuration not stated), CCCCCOc1ccc(Cn2c(=O)oc3ccccc32)cc1, Cc1ccc(/C=C/c2onc(C)c2S(=O)(=O)N2CCC(C(=O)Nc3cc(C)ccc3C)CC2)cc1, Cc1cccc(NC(=O)COC(=O)CCCC2=NS(=O)(=O)c3ccccc3N2)c1, O=C(C1CCCN(S(=O)(=O)c2cccc3nsnc23)C1)N1CCN(c2ccccc2F)CC1 (configuration not stated), CCC1CN(C(=O)N2CCC(C(=O)NCc3cccc(OC)c3OC)CC2)c2cc(C)ccc2O1 (configuration not stated), CCc1ccc(NC(=O)CCn2c(=O)c3cccn3c3ccccc32)cc1, COc1cccc(-c2noc(C3CC(=O)N(c4ccc(F)cc4)C3)n2)c1OC (configuration not stated), COc1cc(NS(=O)(=O)c2cnc(N)nc2)cc(OC)c1
